# According to PubChem BioAssay AID485360 (National Center for Advancing Translational Sciences (NCATS), 2010):
# The whole screen tested about 230,000 compounds, of which about 1,500 (0.65%) were called active. The inconclusive results got no clear call from the source; some entries with a clear call stand among them for comparison. Calls come from the whole dose curve; as a rule, active = well fitted inhibition curve with a large enough effect; inconclusive = small, poorly fitted or top-dose-only effect; inactive = no such curve, though single readings can be large or run the other way. Potencies beside an inconclusive call are fits to weak or partial responses and may not hold up.
# Biological target: Lethal(3)malignant brain tumor-like protein 1 (Homo sapiens) (UniProt Q9Y468)
# Sequence of UniProt Q9Y468 (Q9Y468 whole entry, looked up): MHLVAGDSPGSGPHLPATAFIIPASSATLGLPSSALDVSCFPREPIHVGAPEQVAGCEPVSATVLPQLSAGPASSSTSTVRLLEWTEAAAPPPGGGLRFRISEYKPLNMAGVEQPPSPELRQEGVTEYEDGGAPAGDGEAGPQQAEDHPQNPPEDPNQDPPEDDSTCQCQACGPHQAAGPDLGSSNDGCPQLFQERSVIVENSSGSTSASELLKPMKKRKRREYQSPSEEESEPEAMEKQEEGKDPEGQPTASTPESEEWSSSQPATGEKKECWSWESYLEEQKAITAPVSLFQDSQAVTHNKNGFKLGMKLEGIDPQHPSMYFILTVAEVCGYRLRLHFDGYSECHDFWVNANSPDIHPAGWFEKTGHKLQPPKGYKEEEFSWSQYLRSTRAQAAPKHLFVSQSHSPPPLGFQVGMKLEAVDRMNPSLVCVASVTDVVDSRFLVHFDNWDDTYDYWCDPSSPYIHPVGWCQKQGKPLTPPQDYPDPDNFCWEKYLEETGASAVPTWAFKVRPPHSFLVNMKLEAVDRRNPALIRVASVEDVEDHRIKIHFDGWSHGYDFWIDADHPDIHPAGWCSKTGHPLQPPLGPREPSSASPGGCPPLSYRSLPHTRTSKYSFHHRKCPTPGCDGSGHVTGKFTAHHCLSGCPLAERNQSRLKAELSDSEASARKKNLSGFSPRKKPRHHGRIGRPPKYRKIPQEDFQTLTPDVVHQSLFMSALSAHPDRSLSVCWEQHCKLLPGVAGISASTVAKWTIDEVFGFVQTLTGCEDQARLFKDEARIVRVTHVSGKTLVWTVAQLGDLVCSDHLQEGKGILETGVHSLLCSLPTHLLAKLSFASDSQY
# Assay: qHTS Assay for the Inhibitors of L3MBTL1; note: nearly all actives have a fitted effect of over 60% in size
# Conditions: AlphaScreen L3MBTL1–H3K9me1 peptide binding; activity, negative = inhibition: at 57.1 µM (top of the series)
# How it was run: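 AlphaScreen assay: L3MBTL1 (50 nM final) was preincubated 30 min at room temperature with biotinylated H3(1-15)K9me1 peptide (75 nM final), then 30 min with library compounds; streptavidin donor and nickel chelate acceptor beads (10 ug/mL final) added, 30 min dark.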
# % is set by controls: 0 for no effect and ±100 for the full control effect; potency is the fitted concentration of half-maximal effect; tags give direction and shape of the fitted curve.
SMILES,"activity, negative = inhibition",Potency
Nc1ccccc1O,inactive: -19.7%,–
CCOc1ccc(NC(=O)Nc2ccccc2SC)cc1,inactive: -1.88%,–
O=C(NNc1cccc(Cl)c1)c1cccnc1Cl,inactive: 13.5%,–
O=C(O)c1ccc2[nH]c3c(c2c1)CCCC3,inactive: -9.08%,–
CC1OC(Oc2c(-c3cc(O)c(O)c(O)c3)oc3cc(O)cc(O)c3c2=O)C(O)C(O)C1O (stereo unspecified),–,"inconclusive: 0.708 µM [inhibitor, full curve, poor fit]"
CCOC(=O)C1CCN(Cc2ccc(F)cc2)CC1,inactive: -19.5%,–
CCCC(=O)Nc1ccc(C(=O)NNC(=S)NC(=O)c2cccs2)cc1,inactive: 19.8%,–
COc1ccc(CN=C2NN=C(c3cccc(OC)c3)CS2)cc1,–,"inconclusive: 0.316 µM [inhibitor, full curve, poor fit]"
CC(O)c1nc2ccccc2n1CC(=O)Nc1ccc2c(c1)OCCO2 (stereo unspecified),–,"inconclusive: 2.51 µM [inhibitor, full curve, poor fit]"
O=S1(=O)C=C(SCCN2CCCCC2)c2ccccc21,inactive: -7.47%,–
O=C(Nc1ccc(CN2CCCCC2)cc1)Nc1ccc(Br)cc1Cl,–,"inconclusive: 0.1 µM [inhibitor, full curve, poor fit]"
O=C1Nc2ccc(Cl)cc2C12Nc1ccccc1-c1nnc(SCc3ccccc3F)nc1O2 (stereo unspecified),–,"inconclusive: 14.1 µM [inhibitor, partial curve]"
COc1cc2cnc(-c3ccccc3F)cc2cc1OC,inactive: 4.64%,–
NCCCC[C@@H]1NC(=O)c2cc([N+](=O)[O-])cc(I)c2SC[C@@H](C(N)=O)NC(=O)[C@H](CCC(N)=O)NC1=O,inactive: 4.51%,–
CN(C)S(=O)(=O)c1cccc(C(=O)OCC(=O)N2c3ccccc3NC(=O)C2(C)C)c1,–,"inconclusive: 0.708 µM [inhibitor, single point]"
O=C(c1ccccc1)c1coc2ccc(O)c(Cl)c12,–,"inconclusive: 39.8 µM [inhibitor, single point]"
COc1ccc(C(NC(=O)/C=C/c2ccco2)c2ccc(OC)c(OC)c2)cc1 (stereo unspecified),–,"inconclusive: 28.2 µM [inhibitor, partial curve]"
C#CCOCCOCCOCCNc1nc(N2CCN(C(=O)[C@H](Cc3cc4ccccc4[nH]3)n3cc([C@@H](N)CC(C)C)nn3)CC2)nc(N2CCN(C(=O)[C@H](Cc3cc4ccccc4[nH]3)n3cc([C@@H](N)CC(C)C)nn3)CC2)n1,–,"inconclusive: 0.708 µM [inhibitor, single point]"
O=C(/C=C/c1cccs1)NC(=S)NNC(=O)Cc1cccs1,inactive: 25.7%,–
COc1cc(/C=N/n2c(-c3ccc4c(c3)NC(=O)CO4)csc2=Nc2cccc(C)c2)ccc1O,–,"inconclusive: 12.6 µM [inhibitor, partial curve]"
O=S(=O)(c1ccccc1)N1CCC2(CC1)CO2,–,"inconclusive: 1.12 µM [inhibitor, partial curve, poor fit]"
C1CCCN(c2nc3nonc3nc2N2CCCCCC2)CC1,–,"inconclusive: 2.82 µM [inhibitor, full curve]"
O=C(CCN1CCCCC1)Nc1cccc(Br)c1,inactive: 5.06%,–
N#Cc1ccccc1CN1C(=O)S/C(=C/c2cccn2-c2cccc(C(=O)O)c2)C1=O,–,active: 22.4 µM
COCCNC(=S)N1CCN(Cc2cccc(OC)c2)CC1,inactive: 10%,–
Cc1ccn2c(=O)nc(SCC(=O)N3CCN(c4ccccc4)CC3)nc2c1,–,"inconclusive: 28.2 µM [inhibitor, single point]"

SMILES,"activity, negative = inhibition",Potency
CCN1CCN(c2ccc(S(=O)(=O)N3CCCCC3)cc2NC(=O)c2cccc(OC(F)F)c2)CC1,inactive: -5.01%,–
O=C(O)c1cc(-c2ccc(/C=C3\NC(=O)N(c4ccc(Cl)cc4)C3=O)o2)ccc1Cl,–,active: 7.94 µM
COc1ccc(NC(C)C(=O)N/N=C/c2ccccc2OCc2cccc(Br)c2)cc1 (stereo unspecified),–,"inconclusive: 22.4 µM [inhibitor, partial curve]"
Fc1ccc(CO/N=C2\CCCc3nonc32)cc1,–,"inconclusive: 1.26 µM [inhibitor, partial curve]"
C/C(=C\c1ccco1)C1C(C#N)=C(N)OC2=C1C(=O)CC(C)(C)C2 (stereo unspecified),inactive: -21.5%,–
CCCCn1c(NC(=S)Nc2ccccc2)nc2ccccc21,–,active: 17.8 µM
COCC(C)N=C1NN=C(c2cccs2)C(CC(=O)O)S1 (stereo unspecified),inactive: -5.64%,–
Cc1ccccc1N=CC1=C(O)c2ccccc2C1=O,inactive: -17.4%,–
COC(=O)C(=C/C=C/c1ccco1)C(=O)OC,inactive: -6.89%,–
CC1C/C(=N/Nc2ccc([N+](=O)[O-])cc2[N+](=O)[O-])CC(C)(C)C1 (stereo unspecified),–,"inconclusive: 3.98 µM [inhibitor, full curve, poor fit]"
C=CCn1c(SCC(=O)c2ccc(O)c(O)c2)nnc1-c1cccc(OC)c1,–,"inconclusive: 39.8 µM [inhibitor, single point]"
CCCCN1C(=O)NC(c2ccc(OC)cc2)C(C(=O)OCc2ccccc2)=C1C (stereo unspecified),inactive: -1.39%,–
CCOC(=O)C1CCN(c2nc(N)c3c(N)nc(SCC(=O)O)cc3c2C#N)CC1,–,active: 25.1 µM
NC1=NC(=O)/C(=C/c2cccs2)S1,–,"inconclusive: 44.7 µM [inhibitor, partial curve, poor fit]"
Cn1ccnc1SCC(=O)Nc1sccc1C#N,–,"inconclusive: 31.6 µM [inhibitor, single point]"
O=C(CSc1ccccc1)N/N=C/c1ccccc1O,inactive: 9.8%,–
CCCCC1CCC(C(=O)Nc2ccccc2N2CCOCC2)CC1 (stereo unspecified),inactive: -1.27%,–
Cc1cc(NC(=O)CCOc2ccc(F)cc2)no1,inactive: 0.694%,–
O=C1ON=C(c2ccccc2)/C1=C/c1ccco1,–,active: 28.2 µM
Cc1cccc(NNC(N)=S)c1C,inactive: -4.13%,–
CCN(CC)CCNC(=O)c1ccccc1N,inactive: -1.02%,–
Cc1cc(C)c(C#N)c(Cl)n1,inactive: -0.0432%,–
N=C1S/C(=C\c2ccccc2F)C(=O)N1c1ccc(F)cc1,inactive: 4.55%,–
CCN(C(=S)Nc1ccc(Oc2ccccc2)cc1)c1ccccc1,–,"inconclusive: 31.6 µM [inhibitor, single point]"
O=C(O)c1ccc(-n2c(-c3cc(-c4ccco4)[nH]n3)n[nH]c2=S)cc1,–,"inconclusive: 31.6 µM [inhibitor, single point]"
O=C(Cc1ccc(S(=O)(=O)N2CCCC2)s1)N1CCN(c2ccccc2)CC1,–,"inconclusive: 28.2 µM [inhibitor, single point]"

SMILES,"activity, negative = inhibition",Potency
CCN(CC)C(=O)[C@H]1C[C@H](CC(=O)NC/C=C(\C)CCC=C(C)C)C(=O)N2CCc3c([nH]c4cc(CCC(=O)N(C)C)ccc34)[C@]12C,–,"inconclusive: 39.8 µM [inhibitor, single point]"
C/C(CC(=O)Nc1ccc(N(C)C)cc1)=N\NC(=O)c1ccc([N+](=O)[O-])cc1Cl,–,"inconclusive: 17.8 µM [inhibitor, single point]"
Cn1c2ccccc2c(=O)n2c(=O)c3ccccc3cc12,inactive: -15.6%,–
CN1CCN(c2ccc(CNS(=O)(=O)Cc3ccc(Cl)cc3)cc2)CC1,–,active: 4.47 µM
CCC1=NN(C(=O)c2ccc(Cl)cc2)C(O)(c2ccccc2)C1 (stereo unspecified),–,"inconclusive: 39.8 µM [inhibitor, single point]"
CN(C)CCNc1ncnc2c1sc1nc(N3CCCC3)c3c(c12)CC(C)(C)OC3,–,"inconclusive: 28.2 µM [inhibitor, partial curve]"
CN(Cc1ccccc1)C(=O)c1ccc(NC(=O)C2CCN(C(=O)OC(C)(C)C)CC2)cc1,inactive: 0.188%,–
CCCCNC(=O)CCNS(=O)(=O)c1ccc(Br)cc1,–,"inconclusive: 7.08 µM [inhibitor, single point]"
O=C(COC(=O)c1ccccn1)c1ccc(Br)cc1,–,"inconclusive: 28.2 µM [inhibitor, single point]"
CCCN1C(=O)/C(=C/c2ccco2)SC1=Nc1ccc(OC)cc1,–,"inconclusive: 35.5 µM [inhibitor, single point]"
C(=N\Nc1nc(-c2ccccc2)cs1)/c1ccco1,–,"inconclusive: 39.8 µM [inhibitor, single point]"
Cc1cc(C)c(OCC(=O)N(Cc2ccc(N(C)C)cc2)C2CCS(=O)(=O)C2)c(C)c1 (stereo unspecified),–,"inconclusive: 25.1 µM [inhibitor, single point]"
COc1ccc(-c2cc(C(F)(F)F)nc(SCC(=O)NCc3cccs3)n2)cc1,–,"inconclusive: 4.47 µM [inhibitor, single point]"
O=C1C(C2=NC(c3ccccn3)C3C(=O)N(c4ccc(OC(F)(F)F)cc4)C(=O)C23)=C(O)c2ccccc21 (stereo unspecified),inactive: -0.593%,–
Cc1cc(C)c2c(n1)SCC(=O)N2CC(=O)Nc1ccc(F)cc1,inactive: 2.76%,–
O=C(NCc1ccco1)/C(=C\c1ccco1)NC(=O)c1ccc(Br)o1,–,"inconclusive: 35.5 µM [inhibitor, single point]"
C=CCOc1ccc(CN(C)CC(=O)Nc2ccccc2[N+](=O)[O-])cc1,–,"inconclusive: 17.8 µM [inhibitor, partial curve]"
Cc1ccc2nc(SC(C)C(=O)N3CCCC3)[nH]c2c1 (stereo unspecified),inactive: 6.02%,–
Cc1ccc(CN2CCN(/N=C/c3ccccc3)CC2)cc1,–,"inconclusive: 28.2 µM [inhibitor, single point]"
COC(=O)CCCC(=O)Nc1ccc(Cl)c(Cl)c1,–,"inconclusive: 5.01 µM [inhibitor, single point]"
CCN(CC)c1ccc(C2Nc3cccc4cccc(c34)N2)c(O)c1,–,"inconclusive: 39.8 µM [inhibitor, single point]"
Clc1ccc(C2=NNC(=NCc3ccc4c(c3)OCO4)SC2)cc1,inactive: -7.46%,–
CC1CCc2c(sc(NC(=O)C3=COCCO3)c2C(N)=O)C1 (stereo unspecified),inactive: 19.7%,–
O=C(CN1CCOCC1)Nc1ccc(N2CCN(c3ccccc3)CC2)c(F)c1,–,"inconclusive: 10 µM [inhibitor, partial curve, poor fit]"
